From PMC9911399, “Two distinct binding modes provide the RNA-binding protein RbFox with extraordinary sequence specificity”
Changes are numbered by the printed parent chain; changes in the protein carry UniProt numbers. This is one part of the list.

T1: RBFOX1 RRM (Homo sapiens, UniProt Q9NWB1 109-208)
T1 sequence: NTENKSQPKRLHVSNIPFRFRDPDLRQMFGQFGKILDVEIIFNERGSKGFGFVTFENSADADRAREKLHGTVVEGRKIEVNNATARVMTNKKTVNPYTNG

B1: CAAGCAA (DNA:RNA)
RNA: GGGAGACCGGAAUUCAGAUUGUCCCAAGCAAUUAAAUCCCGUCGUAGCCACCA
DNA 1: CAATCTGAATTCCGGTCTCCC
DNA 2: TGGTGGCTACGACGGGATT
B2: GAGACAG (DNA:RNA)
RNA: B1 RNA with C25G, A27G, G28A, A31G
DNA 1: CAATCTGAATTCCGGTCTCCC
DNA 2: TGGTGGCTACGACGGGATT
B3: GGCCUUA (DNA:RNA)
RNA: B1 RNA with C25G, A26G, A27C, G28C, C29U, A30U
DNA 1: CAATCTGAATTCCGGTCTCCC
DNA 2: TGGTGGCTACGACGGGATT
B4: AGAUGCG (DNA:RNA)
RNA: B1 RNA with C25A, A26G, G28U, C29G, A30C, A31G
DNA 1: CAATCTGAATTCCGGTCTCCC
DNA 2: TGGTGGCTACGACGGGATT
B5: CCACCAU (DNA:RNA)
RNA: B1 RNA with A26C, G28C, A31U
DNA 1: CAATCTGAATTCCGGTCTCCC
DNA 2: TGGTGGCTACGACGGGATT
B6: CAAGGAG (DNA:RNA)
RNA: B1 RNA with C29G, A31G
DNA 1: CAATCTGAATTCCGGTCTCCC
DNA 2: TGGTGGCTACGACGGGATT
B7: CUUCUAG (DNA:RNA)
RNA: B1 RNA with A26U, A27U, G28C, C29U, A31G
DNA 1: CAATCTGAATTCCGGTCTCCC
DNA 2: TGGTGGCTACGACGGGATT
B8: ACCAUCU (DNA:RNA)
RNA: GGGAGACCGGAAUUCAGAUUGUCCACCAUCUUUAAAUCCCGUCGUAGCCACCA
DNA 1: CAATCTGAATTCCGGTCTCCC
DNA 2: TGGTGGCTACGACGGGATT
B9: AAAUGAC (DNA:RNA)
RNA: B1 RNA with C25A, G28U, C29G, A31C
DNA 1: CAATCTGAATTCCGGTCTCCC
DNA 2: TGGTGGCTACGACGGGATT
B10: GUGUCCG (DNA:RNA)
RNA: B8 RNA with A25G, C26U, C27G, A28U, U29C, U31G
DNA 1: CAATCTGAATTCCGGTCTCCC
DNA 2: TGGTGGCTACGACGGGATT
B11: GCGCCUC (DNA:RNA)
RNA: B8 RNA with A25G, C27G, A28C, U29C, C30U, U31C
DNA 1: CAATCTGAATTCCGGTCTCCC
DNA 2: TGGTGGCTACGACGGGATT
B12: CGGUGAA (DNA:RNA)
RNA: B1 RNA with A26G, A27G, G28U, C29G
DNA 1: CAATCTGAATTCCGGTCTCCC
DNA 2: TGGTGGCTACGACGGGATT
B13: CUCUCGA (DNA:RNA)
RNA: B1 RNA with A26U, A27C, G28U, A30G
DNA 1: CAATCTGAATTCCGGTCTCCC
DNA 2: TGGTGGCTACGACGGGATT
B14: AUUCAUU (DNA:RNA)
RNA: B8 RNA with C26U, C27U, A28C, U29A, C30U
DNA 1: CAATCTGAATTCCGGTCTCCC
DNA 2: TGGTGGCTACGACGGGATT
B15: CCGAUGU (DNA:RNA)
RNA: B8 RNA with A25C, C27G, C30G
DNA 1: CAATCTGAATTCCGGTCTCCC
DNA 2: TGGTGGCTACGACGGGATT
B16: UGACGAU (DNA:RNA)
RNA: B1 RNA with C25U, A26G, G28C, C29G, A31U
DNA 1: CAATCTGAATTCCGGTCTCCC
DNA 2: TGGTGGCTACGACGGGATT
B17: CCGGUGG (DNA:RNA)
RNA: B8 RNA with A25C, C27G, A28G, C30G, U31G
DNA 1: CAATCTGAATTCCGGTCTCCC
DNA 2: TGGTGGCTACGACGGGATT
B18: AUAGUAU (DNA:RNA)
RNA: B8 RNA with C26U, C27A, A28G, C30A
DNA 1: CAATCTGAATTCCGGTCTCCC
DNA 2: TGGTGGCTACGACGGGATT
B19: GGUGACG (DNA:RNA)
RNA: B8 RNA with A25G, C26G, C27U, A28G, U29A, U31G
DNA 1: CAATCTGAATTCCGGTCTCCC
DNA 2: TGGTGGCTACGACGGGATT
B20: AGCAUAG (DNA:RNA)
RNA: B8 RNA with C26G, C30A, U31G
DNA 1: CAATCTGAATTCCGGTCTCCC
DNA 2: TGGTGGCTACGACGGGATT
B21: ACUGGCU (DNA:RNA)
RNA: B8 RNA with C27U, A28G, U29G
DNA 1: CAATCTGAATTCCGGTCTCCC
DNA 2: TGGTGGCTACGACGGGATT
B22: AGUGAAA (DNA:RNA)
RNA: B1 RNA with C25A, A26G, A27U, C29A
DNA 1: CAATCTGAATTCCGGTCTCCC
DNA 2: TGGTGGCTACGACGGGATT
B23: UAUGCUU (DNA:RNA)
RNA: B1 RNA with C25U, A27U, A30U, A31U
DNA 1: CAATCTGAATTCCGGTCTCCC
DNA 2: TGGTGGCTACGACGGGATT
B24: AGAAGCU (DNA:RNA)
RNA: B8 RNA with C26G, C27A, U29G
DNA 1: CAATCTGAATTCCGGTCTCCC
DNA 2: TGGTGGCTACGACGGGATT
B25: UCAGGCU (DNA:RNA)
RNA: B8 RNA with A25U, C27A, A28G, U29G
DNA 1: CAATCTGAATTCCGGTCTCCC
DNA 2: TGGTGGCTACGACGGGATT
B26: AAGGCAA (DNA:RNA)
RNA: B1 RNA with C25A, A27G
DNA 1: CAATCTGAATTCCGGTCTCCC
DNA 2: TGGTGGCTACGACGGGATT
B27: UUCUUUG (DNA:RNA)
RNA: B8 RNA with A25U, C26U, A28U, C30U, U31G
DNA 1: CAATCTGAATTCCGGTCTCCC
DNA 2: TGGTGGCTACGACGGGATT
B28: CCAAACA (DNA:RNA)
RNA: B8 RNA with A25C, C27A, U29A, U31A
DNA 1: CAATCTGAATTCCGGTCTCCC
DNA 2: TGGTGGCTACGACGGGATT
B29: AUGGGGC (DNA:RNA)
RNA: B8 RNA with C26U, C27G, A28G, U29G, C30G, U31C
DNA 1: CAATCTGAATTCCGGTCTCCC
DNA 2: TGGTGGCTACGACGGGATT
B30: GGCCUCG (DNA:RNA)
RNA: B8 RNA with A25G, C26G, A28C, U31G
DNA 1: CAATCTGAATTCCGGTCTCCC
DNA 2: TGGTGGCTACGACGGGATT
B31: UUUUGUC (DNA:RNA)
RNA: GGGAGACCGGAAUUCAGAUUGUCCUUUUGUCUUAAAUCCCGUCGUAGCCACCA
DNA 1: CAATCTGAATTCCGGTCTCCC
DNA 2: TGGTGGCTACGACGGGATT

The binders below were run against T1, RBFOX1 RRM (assay: EMSA; HiTS-Eq, 1 nM pool, 10 min; buffer printed only for the single-RNA assays: 10 mM Tris pH 7.5, 150 mM NaCl, 3.4 mM EDTA, 0.001% NP-40, 30 C). Details: tags: His6 N-terminal (pET28a); label: 5' 32P.
How it was run: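 Relative association constants, normalised to the cognate motif, were derived by comparing read counts of each RNA species with those of the control reaction. The RNA sequenced was the free fraction, separated by 8% native PAGE after a 10 min equilibration in 50 µL of 1 nM 5′-radiolabelled RNA (7 randomized nucleotides) with increasing concentrations of purified wild-type or mutant RbFox RRM.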
B1 was tested, and the binding signal was 0.00166 KA relative to UGCAUGU.
In the case of B2, the binding signal is reported as 0.0106 KA relative to UGCAUGU.
B3 was tested, and the binding signal was 0.00694 KA relative to UGCAUGU.
B4 was tested, and the binding signal was 0.013 KA relative to UGCAUGU.
With B5 the binding signal was 0.000756 KA relative to UGCAUGU.
For B6, the binding signal was 0.00606 KA relative to UGCAUGU.
With B7 the binding signal was 0.00709 KA relative to UGCAUGU.
For B8, the binding signal was 0.000184 KA relative to UGCAUGU.
With B9 the binding signal was 0.00578 KA relative to UGCAUGU.
With B10 the binding signal was 0.016 KA relative to UGCAUGU.
With B11 the binding signal was 0.0125 KA relative to UGCAUGU.
For B12, the binding signal was 0.0116 KA relative to UGCAUGU.
B13 was tested, and the binding signal was 0.00919 KA relative to UGCAUGU.
For B14, the binding signal was 0.000676 KA relative to UGCAUGU.
In the case of B15, the binding signal is reported as 0.0124 KA relative to UGCAUGU.
For B16, the binding signal was 0.019 KA relative to UGCAUGU.
With B17 the binding signal was 0.00898 KA relative to UGCAUGU.
In the case of B18, the binding signal is reported as 0.00289 KA relative to UGCAUGU.
In the case of B19, the binding signal is reported as 0.0138 KA relative to UGCAUGU.
B20 was tested, and the binding signal was 0.0115 KA relative to UGCAUGU.
With B21 the binding signal was 0.0162 KA relative to UGCAUGU.
With B22 the binding signal was 0.00902 KA relative to UGCAUGU.
For B23, the binding signal was 0.0103 KA relative to UGCAUGU.
For B24, the binding signal was 0.00454 KA relative to UGCAUGU.
In the case of B25, the binding signal is reported as 0.0162 KA relative to UGCAUGU.
In the case of B26, the binding signal is reported as 0.00425 KA relative to UGCAUGU.
B27 was tested, and the binding signal was 0.0304 KA relative to UGCAUGU.
With B28 the binding signal was 0.000511 KA relative to UGCAUGU.
In the case of B29, the binding signal is reported as 0.0109 KA relative to UGCAUGU.
B30 was tested, and the binding signal was 0.0181 KA relative to UGCAUGU.
In the case of B31, the binding signal is reported as 0.0234 KA relative to UGCAUGU.
